The whole screen tested about 43,000 compounds, of which about 200 (0.47%) were called active. About 12% were inconclusive and are not listed. Calls follow the shape of the dose curve; as a rule, active = well fitted cell-killing curve with a large enough effect; inconclusive = small, poorly fitted or top-dose-only effect, or effect the other way; inactive = flat fitted curve, though single readings scatter. This is one part of the list.
% is scaled to controls: 0 for no effect and ±100 for the full control effect.

The experiment is described as follows: Cell viability qHTS assay in S16 Pmp22-F2sN cells. Also: nearly all actives have a fitted effect of over 65% in size. Conditions: S16 Pmp22-F2sN Schwann cells (luciferase reporters placed in the Pmp22 gene) viability, CellTiter-Glo, 24 h; series mostly up to 57.5 µM; activity change, negative = cytotoxicity: at the top concentration. In outline:
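Luminescence from CellTiter-Glo, read by CCD camera after a 15 min room-temperature incubation, served as the viability signal. Reporter Schwann cells (S16 Pmp22-F2sN) had been treated with pin-transferred compounds for 24 h at 37C.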
For the molecule `CCCCOc1ccc(C(=O)Nc2sc3c(c2C(=O)OCC)CCCCC3)cc1`, the “activity change, negative = cytotoxicity” value was inactive: -2.48%.

On to `COc1ccc(Nc2ncc(C(=O)Nc3ccc(F)cc3F)c3ccccc23)cc1`, for which the “activity change, negative = cytotoxicity” value was inactive: 1.73%.

For the molecule `CCc1ccccc1N(C)C(=O)Nc1cn(CC(C)C)c(=O)c2ccccc12`, the “activity change, negative = cytotoxicity” value is inactive: 2.3%.

On to `CCC1CCCCN1S(=O)(=O)c1ccc2c(c1)CCCN2C(C)=O` (stereo not given), for which the “activity change, negative = cytotoxicity” value was inactive: -12.4%.

Turning to `CCn1cc(C(=O)OCC(=O)Nc2cccc(Cl)c2C)c(=O)c2ccc(C)nc21`, the “activity change, negative = cytotoxicity” value is inactive: -3.52%.

As for `COCCNC(=O)CN1C(=O)COc2ccc(S(=O)(=O)N3CCOCC3)cc21`, the “activity change, negative = cytotoxicity” value is inactive: -4.74%.

Consider `O=C(CSc1nc(=O)n(Cc2ccco2)c2c1CCC2)NCc1ccccc1Cl`, for which the “activity change, negative = cytotoxicity” value is inactive: 4.88%.

In the case of `N#Cc1ccc(NC(=O)COCc2cc(-c3ccc4c(c3)OCO4)on2)cc1`, the “activity change, negative = cytotoxicity” value is inactive: 4.58%.

On to `COC(=O)c1scc(-c2ccc(C)cc2)c1S(=O)(=O)Nc1ccc(OC(F)(F)F)cc1`, for which the “activity change, negative = cytotoxicity” value is inactive: 18.3%.

Take `CCOc1ccc(N2CC(NC(=O)c3ccc(S(=O)(=O)N4CCOCC4)cc3)CC2=O)cc1` (stereo not given): the “activity change, negative = cytotoxicity” value is inactive: -1.01%.

Regarding `CCOc1ccc(CNC(=O)CCn2c(=O)c3cccn3c3cccnc32)cc1`, the “activity change, negative = cytotoxicity” value was inactive: 3.81%.

Turning to `Cc1nc2ccn(Cc3cccnc3)c(=O)c2cc1C(=O)NCc1ccc(Cl)cc1`, the “activity change, negative = cytotoxicity” value was inactive: 3.19%.

In the case of `COc1ccccc1CNC(=O)CCCn1nc(C)c2c(C)n(-c3ccc(C)cc3)nc2c1=O`, the “activity change, negative = cytotoxicity” value is inactive: -4.19%.

With `Cc1ccccc1CNC(=O)CCCn1c(=O)c2cccn2c2ccccc21`, the “activity change, negative = cytotoxicity” value is inactive: -11.1%.

On to `CC(=O)c1ccc(N2CCN(S(=O)(=O)c3cc(-c4onc(C)c4C)ccc3C)CC2)cc1`, for which the “activity change, negative = cytotoxicity” value is inactive: -15.2%.

For the molecule `Cc1cccc2c1-c1sc(C(=O)N3CCN(c4ccc(F)cc4)CC3)cc1CO2`, the “activity change, negative = cytotoxicity” value is inactive: 5.13%.

Consider `COC(=O)c1c(SC)nc2ccccc2c1OCc1ccc(C)cc1C`, for which the “activity change, negative = cytotoxicity” value is inactive: 25.8%.

Consider `Cc1ccc(-c2cc(C(F)(F)F)n3nc(C(=O)Nc4sc5c(c4C#N)CCC(C)C5)cc3n2)cc1` (stereo not given), for which the “activity change, negative = cytotoxicity” value is inactive: -4.47%.

In the case of `Cc1ccc2onc(CC(=O)Nc3cc(F)ccc3F)c2c1`, the “activity change, negative = cytotoxicity” value was inactive: 4.13%.

Regarding `O=C(CSc1nnc2scc(-c3ccc(Cl)cc3)n12)Nc1ccccc1F`, the “activity change, negative = cytotoxicity” value is inactive: 23.2%.

`CC(CNC(=O)c1ccc(CSc2nc3ccncc3n2Cc2cccc(F)c2)cc1)c1ccccc1` (stereo not given): the “activity change, negative = cytotoxicity” value is inactive: -16.4%.

On to `Cc1ccc(C)c(-c2nn(CC(=O)Nc3cc(F)ccc3F)c(=O)c3c2CCCC3)c1`, for which the “activity change, negative = cytotoxicity” value was inactive: -19.3%.

Consider `CCOc1cccc(CC(=O)N2CCc3c([nH]c4ccccc34)C2c2ccc(C)cc2)c1OCC` (stereo not given), for which the “activity change, negative = cytotoxicity” value was inactive: -18.6%.

Turning to `COc1ccc(C(=O)Nc2ccc3c(c2)N(C2CCCC2)C(=O)c2ccccc2S3)cc1OC`, the “activity change, negative = cytotoxicity” value is inactive: -1.99%.

With `Cc1ccn2c(=O)c(C(=O)NCCc3ccc(S(N)(=O)=O)cc3)c(O)nc2c1`, the “activity change, negative = cytotoxicity” value was inactive: 2.81%.

Take `Cc1cc(=O)n(Cc2ccc(F)cc2Cl)c2c1c(C)nn2-c1ccccc1`: the “activity change, negative = cytotoxicity” value is inactive: -7.54%.

Consider `CCn1c(=O)c2sccc2n2c(CCCC(=O)N3CCN(c4cc(C)ccc4C)CC3)nnc12`, for which the “activity change, negative = cytotoxicity” value is inactive: 11.8%.

In the case of `COc1ccc(NC(=O)NCc2cccn2Cc2ccc(F)cc2)cc1OC`, the “activity change, negative = cytotoxicity” value was inactive: 3.17%.

With `Cc1cc(Nc2ccccc2Cl)n2nc(-c3ccco3)nc2n1`, the “activity change, negative = cytotoxicity” value is inactive: -0.0836%.

Turning to `COc1ccc(N2C(=O)CSC23C(=O)N(CC(=O)NCc2ccccc2)c2ccccc23)cc1` (stereo not given), the “activity change, negative = cytotoxicity” value was inactive: 4.35%.

For `Cc1ccc(NCc2ccccc2-c2nnc(-c3ccccc3Cl)o2)cc1Cl`, the “activity change, negative = cytotoxicity” value is inactive: 12.6%.

As to `COc1ccc(S(=O)(=O)NC2(C(F)(F)F)NC(=O)N(CCc3ccc(OC)c(OC)c3)C2=O)cc1` (stereo not given), the “activity change, negative = cytotoxicity” value is inactive: 4.5%.

With `CS(=O)(=O)NCCc1csc2nc(-c3ccccc3)nn12`, the “activity change, negative = cytotoxicity” value was inactive: 2.95%.

Take `CCOc1ccc(NC(=O)c2c(NC(=O)c3cccc(C)c3)sc3c2CCC3)cc1`: the “activity change, negative = cytotoxicity” value was inactive: 8.96%.

`CCOC(=O)c1c(NC(=O)CSc2cn(CCNC(=O)c3ccccc3OC)c3ccccc23)sc2c1CCCC2`: the “activity change, negative = cytotoxicity” value was inactive: 16.1%.

Regarding `O=C(NCC1CCN(Cc2cccc(F)c2)CC1)c1cc2ccc3cccnc3c2[nH]1`, the “activity change, negative = cytotoxicity” value is inactive: -14.9%.

Turning to `CC1=C(c2ccc(C(C)C)cc2)S(=O)(=O)N=C1N1CCC(C(=O)NCc2ccco2)CC1`, the “activity change, negative = cytotoxicity” value was inactive: -7.97%.

Take `CCOc1ccc(NC(=O)Cn2c(=O)n(Cc3ccccc3)c(=O)c3sc4ccccc4c32)cc1`: the “activity change, negative = cytotoxicity” value was inactive: 1.31%.

Turning to `Cc1cc(C)cc(NC(=O)CN2C(=O)CSc3ccc(S(=O)(=O)N4CCCC4)cc32)c1`, the “activity change, negative = cytotoxicity” value was inactive: -1.1%.

As to `Cc1c(C(=O)NCCc2ccccc2)cccc1-n1cnc2cccnc21`, the “activity change, negative = cytotoxicity” value was inactive: 7.99%.

Consider `CCc1ccc(NC(=O)CC2C(=O)N(c3ccc(OC)cc3)C(=O)N2Cc2ccc(OC)cc2)cc1` (stereo not given), for which the “activity change, negative = cytotoxicity” value is inactive: -2.28%.

With `COc1ccccc1N1CCN(S(=O)(=O)CCNC(=O)COc2ccc(F)cc2)CC1`, the “activity change, negative = cytotoxicity” value is inactive: -9.23%.

On to `Cc1ccc(CNC(=O)Cn2c(=O)cc(-c3ccccc3)c3c(C)nn(C)c32)cc1`, for which the “activity change, negative = cytotoxicity” value was inactive: 1.58%.

Regarding `Cc1ccc(C(=O)c2oc3ccccc3c2NC(=O)c2cc(-c3ccccc3)on2)cc1`, the “activity change, negative = cytotoxicity” value was inactive: -1.31%.

As for `Cc1ccc(-n2ncc3c(Nc4ccc5c(c4)OCCO5)ncnc32)cc1Cl`, the “activity change, negative = cytotoxicity” value is inactive: -1.76%.

`CCOCCCN1C(=O)CN(C2CCCCCC2)C(=O)C1c1ccc(OCC)c(OC)c1` (stereo not given): the “activity change, negative = cytotoxicity” value was inactive: 1.28%.

For `COc1ccc(S(=O)(=O)NCCc2sc(-c3cccnc3)nc2C)cc1`, the “activity change, negative = cytotoxicity” value is inactive: 15.7%.

For the molecule `O=C(NC1CC(=O)N(c2ccc(F)cc2)C1)c1ccc(S(=O)(=O)N2CCOCC2)cc1` (stereo not given), the “activity change, negative = cytotoxicity” value is inactive: 9.24%.

Turning to `O=C(O)CCC(=O)N1CCc2cc(S(=O)(=O)NCc3ccc(F)cc3)ccc21`, the “activity change, negative = cytotoxicity” value was inactive: -0.978%.

In the case of `COc1ccc(NC(=O)c2cccc3c(=O)c4c([nH]c23)CCCC4)cc1`, the “activity change, negative = cytotoxicity” value is inactive: 6.94%.

For `Cc1ccc(C(C)C)c(OCC(=O)Nc2ccc3c(c2)nc(CCNC(=O)c2ccco2)n3C)c1`, the “activity change, negative = cytotoxicity” value is inactive: 7.06%.

As to `CCSc1nc(-c2ccccc2)nc2c1Cc1c(CO)cnc(C)c1O2`, the “activity change, negative = cytotoxicity” value was inactive: -0.118%.

Take `CCOC(=O)C1CCN(C(=O)C2CCN(S(=O)(=O)c3c(C)noc3/C=C/c3ccc(C)cc3)CC2)CC1`: the “activity change, negative = cytotoxicity” value is inactive: 17.8%.

With `CCOC(=O)c1[nH]c(C)c(CCC(=O)N2CCN(c3ccc(OC)cc3)CC2)c1C`, the “activity change, negative = cytotoxicity” value was inactive: 21.1%.

Regarding `Cc1cc(S(=O)(=O)Nc2cc3c(cc2N2CCOCC2)n(C)c(=O)c(=O)n3C)ccc1F`, the “activity change, negative = cytotoxicity” value is inactive: 7.1%.

Take `O=C(Nc1cccc(Br)c1)c1cc(S(=O)(=O)N2CCCCC2)c[nH]1`: the “activity change, negative = cytotoxicity” value is inactive: -1.21%.

Take `COc1ccc(-c2nc3n(n2)C(c2ccc(O)cc2)C(C(=O)Nc2cccnc2)=C(C)N3)cc1OC` (stereo not given): the “activity change, negative = cytotoxicity” value was inactive: -2.26%.

For `Cc1csc2nc(COc3ccc(NC(=O)c4ccccc4F)cc3)cc(=O)n12`, the “activity change, negative = cytotoxicity” value is inactive: -6.56%.

For the molecule `COc1ccc(C(=O)Nc2nc(-c3ccc(Br)cc3)ns2)cc1`, the “activity change, negative = cytotoxicity” value was inactive: -3.7%.

For the molecule `CCOc1ccc(CCNC(=O)NCc2noc3ccc(C)cc23)cc1`, the “activity change, negative = cytotoxicity” value was inactive: 11.9%.

The values above are taken from PubChem BioAssay AID1508642 (National Center for Advancing Translational Sciences (NCATS), 2021).
